Data on 44 molecules can be found in article PMC4336329 (PLoS ONE, 2015).

SMILES strings stand for the structures. The whole screen tested about 310,000 compounds, of which about 14,000 (4.5%) showed an effect of 50% or more. Effects have a minus sign here. The list shows a part of the results.
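Note: peak tail current of the secondary pulse compared with the same well before compound.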

Chain of human ether-à-go-go-related gene (hERG) potassium channel (Q12809 whole entry, looked up): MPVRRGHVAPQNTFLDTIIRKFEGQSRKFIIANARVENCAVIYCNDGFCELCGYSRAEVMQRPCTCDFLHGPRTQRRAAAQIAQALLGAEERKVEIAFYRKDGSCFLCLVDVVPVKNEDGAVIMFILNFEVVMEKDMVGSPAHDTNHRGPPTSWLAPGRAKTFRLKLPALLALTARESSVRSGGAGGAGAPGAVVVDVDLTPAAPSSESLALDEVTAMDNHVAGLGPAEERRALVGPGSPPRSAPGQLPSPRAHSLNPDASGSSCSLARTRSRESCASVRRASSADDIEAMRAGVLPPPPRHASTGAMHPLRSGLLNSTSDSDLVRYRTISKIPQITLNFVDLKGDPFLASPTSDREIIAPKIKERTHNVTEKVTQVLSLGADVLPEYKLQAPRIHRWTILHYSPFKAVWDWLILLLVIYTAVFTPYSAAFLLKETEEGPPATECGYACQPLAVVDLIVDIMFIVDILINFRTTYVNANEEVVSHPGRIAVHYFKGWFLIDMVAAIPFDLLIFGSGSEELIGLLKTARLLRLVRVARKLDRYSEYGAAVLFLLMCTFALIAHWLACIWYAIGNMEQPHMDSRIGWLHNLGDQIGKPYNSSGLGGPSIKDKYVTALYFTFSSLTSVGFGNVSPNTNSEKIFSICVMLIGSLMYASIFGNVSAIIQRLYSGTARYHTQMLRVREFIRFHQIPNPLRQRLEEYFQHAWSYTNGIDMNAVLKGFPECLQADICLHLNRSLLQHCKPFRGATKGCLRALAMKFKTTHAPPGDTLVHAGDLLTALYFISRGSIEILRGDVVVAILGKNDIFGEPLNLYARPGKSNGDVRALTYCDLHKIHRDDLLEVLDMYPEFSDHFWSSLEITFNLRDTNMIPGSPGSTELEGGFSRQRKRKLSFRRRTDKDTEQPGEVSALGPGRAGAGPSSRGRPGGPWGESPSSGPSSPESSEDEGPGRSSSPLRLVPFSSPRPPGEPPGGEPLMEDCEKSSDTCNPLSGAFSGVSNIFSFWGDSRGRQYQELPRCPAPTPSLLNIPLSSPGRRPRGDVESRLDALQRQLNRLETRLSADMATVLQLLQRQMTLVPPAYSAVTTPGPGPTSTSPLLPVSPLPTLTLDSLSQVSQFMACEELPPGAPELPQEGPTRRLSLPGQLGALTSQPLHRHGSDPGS

This assay addresses human ether-à-go-go-related gene (hERG) potassium channel (human, UniProt Q12809). The assay is described as follows: primary screen, population patch clamp on CHO cells stably expressing hERG.
With `Cc1noc(C)c1COc1ccc(C(=O)Nc2ccccc2)cc1`, the “hERG current change (%, negative = inhibition) at 10uM” value was determined as 35.2%. As for `COc1ccc(NC(=O)CCCNC(=O)Cn2cnc3sc(C)c(C)c3c2=O)c(OC)c1`, the figure is 22.5%; as for `CC1(C)Cc2ccccc2-c2nnc(SCc3ccc(C#N)cc3)n21`, -58.9%. Then `CC(C)C[C@@H]1NC(=O)[C@H](C(C)C)NC(=O)c2cc([N+](=O)[O-])cc(I)c2OCC[C@@H](C(N)=O)NC1=O`, with 13.3%; and `Cc1ccc(N2CC(C(=O)NC3CC3)CC2=O)cc1` (centres unmarked), with 12.8%. Then `S=C(NCCN1CCCCC1)Nc1ccccc1`, with 0.941%.

On to `CCOc1cc(C(=O)N[C@@H](C)C(=O)N2CCC3(CC2)NCCc2[nH]cnc23)cc(OCC)c1OCC`, for which the “hERG current change (%, negative = inhibition) at 10uM” value came to 19.8%. Consider `Cc1ccc(CNC(=O)c2ccc(Cn3nc(C)c(Cl)c3C)o2)cc1`, for which the “hERG current change (%, negative = inhibition) at 10uM” value was -20.2%.

Consider `O=c1[nH]c(Sc2ccc([N+](=O)[O-])cc2[N+](=O)[O-])nc2ccccc12`, for which the “hERG current change (%, negative = inhibition) at 10uM” value worked out at 9.99%.

As to `CS(=O)(=O)Nc1ccccc1C(=O)O`, the “hERG current change (%, negative = inhibition) at 10uM” value is given as -11.9%. As for `O=C(Nc1nc2ccc(Cl)cc2s1)[C@@H]1CCCN1C(=O)c1cccs1`, the figure is 3.87%; as for `C/C(CCc1oc2ccc(Cl)cc2c1-c1ccc(C)o1)=N\O`, 22.9%; as for `CC1CN(C(=O)C2(C)CC2(Br)Br)CC(C)O1` (centres unmarked), -30.6%. Then `COC(=O)CCC(=O)Nc1ccc(S(=O)(=O)Nc2nc(C)cc(C)n2)cc1`, with 12.9%; and `O=C(CN1CCC(C(=O)c2ccc3c(c2)OCCO3)CC1)NCc1ccccc1`, with -8.17%; and `CCOC(=O)C(=O)C1=C(N2CCOCC2)/C(=C\c2cccc([N+](=O)[O-])c2)CC1`, with -27.6%. Regarding `CNC(=S)N/N=C/c1c(C)c(C(=O)c2ccc(F)cc2)n2ccccc12`, the “hERG current change (%, negative = inhibition) at 10uM” value was 20.4%. Then `COCCn1c(SCC(=O)/C=C2\N(C)c3ccccc3C2(C)C)nnc1-c1ccncc1`, with -37.4%; and `COc1ccc(CCNC(=O)C(=O)NCC2CCCN2S(=O)(=O)c2cccs2)cc1OC` (centres unmarked), with -21.1%.

As to `O=C(CSc1nccc(=O)[nH]1)Nc1ccc(S(=O)(=O)N2CCOCC2)cc1`, the “hERG current change (%, negative = inhibition) at 10uM” value turned out to be 7.52%. Then `COc1ccc(-c2cc3nc(C)cc(N4CC(C)CC(C)C4)n3n2)cc1` (centres unmarked), with 8.41%; and `COc1ccc(Br)cc1/C=N/NC(=O)CNC(=O)c1cccnc1`, with 14.8%. Then `S=C1NC(c2ccccc2)=NCN1c1ccc(Cl)cc1`, with -3.17%; and `O=C(CN1C(=O)C2CC=CCC2C1=O)NCc1ccc2c(c1)OCO2` (centres unmarked), with 11.2%; and `COc1cccc(C(=O)c2c[nH]c(C(=O)NCc3ccco3)c2)c1`, with -8.61%.

With `S=c1[nH]nc(-c2cccc(Cl)c2)n1Cc1ccccc1`, the “hERG current change (%, negative = inhibition) at 10uM” value is listed as 5.13%. As for `Cc1nn(-c2ccccc2)c(C)c1/C=N/n1c(-c2ccncc2)n[nH]c1=S`, the figure is 19.3%.

Consider `Clc1cccc(NCc2nnc3n2CCCCC3)c1`, for which the “hERG current change (%, negative = inhibition) at 10uM” value is 4.14%.

As to `CCOC(=O)c1cc(NC(=O)CSCCO)ccc1Cl`, the “hERG current change (%, negative = inhibition) at 10uM” value is -9%. As for `NNC(=O)c1ccccc1-n1cccc1`, the figure is 3.25%. Consider `CC(=O)Nc1ccc(NC(=O)C(C)OC(=O)CN(C)S(=O)(=O)c2ccc(Cl)cc2)cc1` (centres unmarked), for which the “hERG current change (%, negative = inhibition) at 10uM” value is 6.49%.

With `CCN(CC)C(=O)CSc1nc(OC)cc(=O)[nH]1`, the “hERG current change (%, negative = inhibition) at 10uM” value is -19.5%.

As to `Cc1cc(NC(=O)CSCC(=O)Nc2cccc(S(=O)(=O)N3CCCCCC3)c2)no1`, the “hERG current change (%, negative = inhibition) at 10uM” value was -23.5%. Take `COc1ccc(NS(=O)(=O)c2ccc3c(c2)N(C(C)=O)CCS3)cc1`: the “hERG current change (%, negative = inhibition) at 10uM” value is reported as 6.97%. Then `CC1(C)N([O-])C(c2cccs2)=C[N+]1=O`, with -7.12%. `COc1cc(C(=O)OC(C)C(=O)NCC2CCCCC2)cc(NC(=O)c2ccco2)c1OC` (centres unmarked): the “hERG current change (%, negative = inhibition) at 10uM” value turned out to be 8.29%.

`COc1ccc(NC(=O)CSC2CC(=O)N(c3ccc4c(c3)OCCO4)C2=O)cc1` (centres unmarked): the “hERG current change (%, negative = inhibition) at 10uM” value is reported as 4.54%. As for `O=c1[nH]c2cc3c(cc2cc1CN(CCO)S(=O)(=O)c1ccccc1)OCCO3`, the figure is -19%; as for `Cc1c(NC(=O)COC(=O)/C=C/c2cccc(Cl)c2)c(=O)n(-c2ccccc2)n1C`, -58.7%; as for `COc1ccccc1NS(=O)(=O)c1ccc(N2CCOCC2)c(NC(=O)c2ccco2)c1`, -2.73%. Then `O=C(O)CSc1c(-c2cccs2)[nH]c2ccccc12`, with 1.69%; and `Cc1ccccc1Cn1ccc(-c2ccc(Cl)cc2)c(C#N)c1=O`, with -23.2%; and `CCO[C@@H]1OC(C(=O)N2CCN(Cc3ccccc3)CC2)=C[C@H](c2ccc(Br)cc2)[C@H]1CCCO`, with -27.2%. As for `CC(=O)N(C)c1ccc(OCC(O)CN(Cc2ccco2)S(=O)(=O)c2ccc(C)cc2)cc1` (centres unmarked), the figure is -34.7%.
